Source: the RNAGym collection of RNA variant scans (doi:10.1073/pnas.2313332121)
Variants at the background level are over-represented here.

B1: TPR 5TU (parent)
chain: GGAUCUUCUCGAUCUAACAAAAAAGACAAAUCUGCCACAAAGCUUGAGAGCAUCUUCGGAUGCAGAGGCGGCAGCCUUCGGUGGCGCGAUAGCGCCAACGUUCUCAACUAUGACACGCAAAACGCGUGCUCCGUUGAAUGGAGUUUAUCAUG

Variants of: B1
Test: polymerase ribozyme fitness, log enrichment relative to wild type (log ratio); higher = more active; in vitro selection for triplet polymerase activity
Procedure, shortened: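 Libraries of mutants in each subunit of a heterodimeric triplet polymerase ribozyme were generated by PCR and transcribed. In triplicate, each went through one in vitro selection round: annealing with biotinylated primer, partner subunit and triplets; frozen incubation at −7 °C; gel excision of extended constructs; streptavidin-bead capture; RT-PCR. Fitness, taken from Illumina sequencing of input and output libraries, is the logarithm of a genotype's enrichment over wild-type enrichment, averaged across replicates with inverse-variance weights. The logarithm is base 2, and genotypes needed ≥10 input reads and ≥1 read per output to be kept.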

For G42C U44G A49U U56C G94U U111C G143A, which “polymerase ribozyme fitness (log ratio)” value is on record?
Its value is no more than -4.2.

Which “polymerase ribozyme fitness (log ratio)” value does the source give for G42U U55A G81U U102G A142U here?
The value was no more than -4.2.

For G42A G100U, which “polymerase ribozyme fitness (log ratio)” value is on record?
The value was no more than -4.2.

With G42A G46A G81U C96A U134A as the variant, how does the “polymerase ribozyme fitness (log ratio)” value read?
The value was no more than -4.2.

For A41U U55A G88U A142U, which “polymerase ribozyme fitness (log ratio)” value is on record?
The value was no more than -4.2.

Which “polymerase ribozyme fitness (log ratio)” value does the source give for G42A C87G C118A here?
Its value is no more than -4.2.

Which “polymerase ribozyme fitness (log ratio)” value does the source give for G42C A52C A64G G80A C96A C108U A110G here?
The value was no more than -4.2.

For G42C G86U U109G G141U, which “polymerase ribozyme fitness (log ratio)” value is on record?
Its value is no more than -4.2.

For A41U G42A C79A G83U A91U C96U A98G A107C, which “polymerase ribozyme fitness (log ratio)” value is on record?
The value was no more than -4.2.

Which “polymerase ribozyme fitness (log ratio)” value does the source give for C43A A91U G140C A150C here?
The value was no more than -4.2.

With G42A U55A A66C C75U C96A G128C U134G as the variant, how does the “polymerase ribozyme fitness (log ratio)” value read?
The value was no more than -4.2.

With G42C G58C C96G as the variant, how does the “polymerase ribozyme fitness (log ratio)” value read?
The value was no more than -4.2.

With G42C A47G G88C as the variant, how does the “polymerase ribozyme fitness (log ratio)” value read?
Its value is no more than -4.2.

Which “polymerase ribozyme fitness (log ratio)” value does the source give for G42C U101G G136U here?
Its value is no more than -4.2.

For G42C G48C C87A G88C G141U, which “polymerase ribozyme fitness (log ratio)” value is on record?
Its value is no more than -4.2.

With G42U G74C as the variant, how does the “polymerase ribozyme fitness (log ratio)” value read?
The value was no more than -4.2.

For G42C C96G A115G, which “polymerase ribozyme fitness (log ratio)” value is on record?
The value was no more than -4.2.

Which “polymerase ribozyme fitness (log ratio)” value does the source give for A41G U55C A60G G83U G84C C93U here?
Its value is no more than -4.2.

Which “polymerase ribozyme fitness (log ratio)” value does the source give for A41U C75G G92U A97G here?
Its value is no more than -4.2.

For G42U U55A C87G C116G C118A G136C, which “polymerase ribozyme fitness (log ratio)” value is on record?
Its value is no more than -4.2.

Which “polymerase ribozyme fitness (log ratio)” value does the source give for A41U G80C G88U C103A A107G here?
The value was no more than -4.2.

For G42A G92U, which “polymerase ribozyme fitness (log ratio)” value is on record?
The value was no more than -4.2.

For G42A G92A, which “polymerase ribozyme fitness (log ratio)” value is on record?
Its value is no more than -4.2.

For G42A G71A A91U A97U G100C, which “polymerase ribozyme fitness (log ratio)” value is on record?
The value was no more than -4.2.

Which “polymerase ribozyme fitness (log ratio)” value does the source give for G42A A64G U102G here?
The value was no more than -4.2.

Which “polymerase ribozyme fitness (log ratio)” value does the source give for G42C C43U G48A A49C C79A G86A G141C here?
The value was no more than -4.2.

With G42U G62U C132U as the variant, how does the “polymerase ribozyme fitness (log ratio)” value read?
Its value is no more than -4.2.

For G42A G58C C79A C118U A142U, which “polymerase ribozyme fitness (log ratio)” value is on record?
Its value is no more than -4.2.

With G42A A47U U61A C105G G143A A147C as the variant, how does the “polymerase ribozyme fitness (log ratio)” value read?
The value was no more than -4.2.

For G42C U77G G86A G88U U145C, which “polymerase ribozyme fitness (log ratio)” value is on record?
Its value is no more than -4.2.

For G42C U44A U90G G140U A147U, which “polymerase ribozyme fitness (log ratio)” value is on record?
Its value is no more than -4.2.

For G42A A60C C103G, which “polymerase ribozyme fitness (log ratio)” value is on record?
The value was no more than -4.2.

Which “polymerase ribozyme fitness (log ratio)” value does the source give for G42C U55A G92C A115U A150U here?
Its value is no more than -4.2.

For G42C A49C, which “polymerase ribozyme fitness (log ratio)” value is on record?
Its value is no more than -4.2.

Which “polymerase ribozyme fitness (log ratio)” value does the source give for G42U U77C A91G here?
The value was no more than -4.2.

Which “polymerase ribozyme fitness (log ratio)” value does the source give for C43A G94A C132U here?
The value was no more than -4.2.

For A41U U45A C51U U127G, which “polymerase ribozyme fitness (log ratio)” value is on record?
The value was no more than -4.2.

Which “polymerase ribozyme fitness (log ratio)” value does the source give for G42U U102A C118U A137C A147G G152U here?
Its value is no more than -4.2.

Which “polymerase ribozyme fitness (log ratio)” value does the source give for G42A U56A G59C C75G C99U C118U C132U here?
Its value is no more than -4.2.

Which “polymerase ribozyme fitness (log ratio)” value does the source give for C43A C79U C93G A122C G143A here?
Its value is no more than -4.2.

Which “polymerase ribozyme fitness (log ratio)” value does the source give for G42C A52C G59A G74A G92C A97C C99A C108G U111C C116A A122U A138G G141C here?
The value was no more than -4.2.

For G42C C96G C131A U148A, which “polymerase ribozyme fitness (log ratio)” value is on record?
The value was no more than -4.2.

For G42A A52C C54A U56C G94C, which “polymerase ribozyme fitness (log ratio)” value is on record?
The value was no more than -4.2.

Which “polymerase ribozyme fitness (log ratio)” value does the source give for G42U C85A C99U C108G A110G here?
Its value is no more than -4.2.

For G42C G86U, which “polymerase ribozyme fitness (log ratio)” value is on record?
Its value is no more than -4.2.

With G42C G86C as the variant, how does the “polymerase ribozyme fitness (log ratio)” value read?
Its value is no more than -4.2.

Which “polymerase ribozyme fitness (log ratio)” value does the source give for C43A C76U G80A G94U U101A A120C G126C U151A here?
The value was no more than -4.2.

For A41U U111A, which “polymerase ribozyme fitness (log ratio)” value is on record?
The value was -3.7.

For A41U U53G A110C A115C, which “polymerase ribozyme fitness (log ratio)” value is on record?
Its value is no more than -4.2.

For A41U A52G A107U G140U C149A, which “polymerase ribozyme fitness (log ratio)” value is on record?
Its value is no more than -4.2.

With G42U U56A G58A C76U C95G A98G as the variant, how does the “polymerase ribozyme fitness (log ratio)” value read?
Its value is no more than -4.2.

With G42A G94U U135G as the variant, how does the “polymerase ribozyme fitness (log ratio)” value read?
The value was no more than -4.2.

Which “polymerase ribozyme fitness (log ratio)” value does the source give for A41U G68U C93U A106G here?
Its value is no more than -4.2.

For A41U U148G, which “polymerase ribozyme fitness (log ratio)” value is on record?
Its value is no more than -4.2.

With G42A G50C U56A C87U C116U as the variant, how does the “polymerase ribozyme fitness (log ratio)” value read?
Its value is no more than -4.2.

Which “polymerase ribozyme fitness (log ratio)” value does the source give for G42C G62U A64C G71A C79G C132G U139G U146G here?
The value was no more than -4.2.

Which “polymerase ribozyme fitness (log ratio)” value does the source give for G42C U44G A106G here?
The value was no more than -4.2.

For A41G G86C A121C U139A C149U, which “polymerase ribozyme fitness (log ratio)” value is on record?
The value was no more than -4.2.

Which “polymerase ribozyme fitness (log ratio)” value does the source give for G42C G50A C75U G88A U90A C99A A107G C108G U109C C118A A150G here?
The value was no more than -4.2.

For A41U C54G G88C U130A, which “polymerase ribozyme fitness (log ratio)” value is on record?
Its value is no more than -4.2.

With G42U U55A A73U C79A A91C C95U C132U as the variant, how does the “polymerase ribozyme fitness (log ratio)” value read?
Its value is no more than -4.2.

With A41U G92U as the variant, how does the “polymerase ribozyme fitness (log ratio)” value read?
Its value is -1.05.

With A41G U61A G92A U135G C149G as the variant, how does the “polymerase ribozyme fitness (log ratio)” value read?
The value was no more than -4.2.

With G42C G46A A91U C96U A97C G117U as the variant, how does the “polymerase ribozyme fitness (log ratio)” value read?
The value was no more than -4.2.

For C43A G80C G94U, which “polymerase ribozyme fitness (log ratio)” value is on record?
Its value is no more than -4.2.

Which “polymerase ribozyme fitness (log ratio)” value does the source give for G42U A64G A66U C79G C95U C103U A113U here?
The value was no more than -4.2.

For C43A A47C A142C, which “polymerase ribozyme fitness (log ratio)” value is on record?
The value was no more than -4.2.

With A41U G80A A97U as the variant, how does the “polymerase ribozyme fitness (log ratio)” value read?
The value was -1.76.

With A41G U104G C105U A122C as the variant, how does the “polymerase ribozyme fitness (log ratio)” value read?
Its value is -1.26.

Which “polymerase ribozyme fitness (log ratio)” value does the source give for A41U A47U C79G U90C C95G C105G A106C U127A here?
Its value is no more than -4.2.

Which “polymerase ribozyme fitness (log ratio)” value does the source give for A41U G81A G84C C85A C96U G126A here?
Its value is no more than -4.2.

With C43A C54U C85G A97U G141U U151G as the variant, how does the “polymerase ribozyme fitness (log ratio)” value read?
Its value is no more than -4.2.

Which “polymerase ribozyme fitness (log ratio)” value does the source give for G42A G48A G68A G86U C132A here?
The value was no more than -4.2.

With A41G G80C G84A C95U U135G as the variant, how does the “polymerase ribozyme fitness (log ratio)” value read?
Its value is no more than -4.2.

Which “polymerase ribozyme fitness (log ratio)” value does the source give for G42U C76A G86C A120G G124C U144C here?
The value was no more than -4.2.

For A41U G50A U53C C72A G86C U130C U139C U144G, which “polymerase ribozyme fitness (log ratio)” value is on record?
Its value is no more than -4.2.

Which “polymerase ribozyme fitness (log ratio)” value does the source give for G42A C114G G133U A150C here?
The value was no more than -4.2.

With G42C C69G G84U C99A G128U as the variant, how does the “polymerase ribozyme fitness (log ratio)” value read?
The value was no more than -4.2.

Which “polymerase ribozyme fitness (log ratio)” value does the source give for G42C C131G U134C U145C here?
The value was no more than -4.2.

For G42A C116G A150U, which “polymerase ribozyme fitness (log ratio)” value is on record?
Its value is no more than -4.2.

With G42A U61A G86A G136C as the variant, how does the “polymerase ribozyme fitness (log ratio)” value read?
The value was no more than -4.2.

For C43A C63U U90A, which “polymerase ribozyme fitness (log ratio)” value is on record?
Its value is no more than -4.2.

Which “polymerase ribozyme fitness (log ratio)” value does the source give for A41U A49C C96G A113G U135C C149U here?
The value was no more than -4.2.
